Results from the supplement of paper PMC8748497.
Where “and” joins values, the source holds several entries; their conditions need not be identical. Identical values can stand only once. The list shows a part of the results.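 The calls were made as follows: active = fold change of at least 2 over DMSO control; inactive = below 2-fold.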 Many values rest on one well or one pass, so single values are uncertain.

system: HEK293 ARE/NRF2-luciferase reporter; assay: ARE/NRF2 luciferase reporter activity, fold change over DMSO control; higher = stronger NRF2/ARE reporter activation; settings: 10 µM; 24 h

ARE/NRF2 luciferase reporter activity, inactive:
COc1ccc(CC2c3cc(OC)c(OC)cc3CC[N+]2(C)CCC(=O)OCCCCCOC(=O)CC[N+]2(C)CCc3cc(OC)c(OC)cc3C2Cc2ccc(OC)c(OC)c2)cc1OC (centres undefined) 1.9
CNc1ccccc1C(=O)N1CCc2c([nH]c3ccccc23)C1=O 0.997
Cc1cc(O)c(C=O)c2c1C(=O)Oc1c(COC(=O)/C=C/C(=O)O)c(O)c(C(=O)O)c(C)c1O2 0.862
C/C(=C\C(=O)OCCCCCCCCC(=O)O)C[C@@H]1OC[C@H](C[C@@H]2O[C@H]2[C@@H](C)[C@H](C)O)[C@@H](O)[C@H]1O 0.952
Cc1c(-c2cnccn2)ssc1=S 1
CC(C[N+](C)(C)C)OC(N)=O (centres undefined) 0.975
CCCc1nc2c(C)cc(-c3nc4ccccc4n3C)cc2n1Cc1ccc(-c2ccccc2C(=O)O)cc1 1.35
COc1cc2oc3cc(OC)c(OC)c(CC=C(C)C)c3c(=O)c2c(O)c1CC=C(C)C 1.11
O=C(O)C1CSCN1 (centres undefined) 0.804
CO/N=C(\C(=O)N[C@@H]1C(=O)N2C(C(=O)O)=C(CSc3nc(=O)c(O)nn3C)CS[C@H]12)c1csc(N)n1 1.06
COc1ccc(Cl)cc1C(=O)NCCc1ccc(S(=O)(=O)NC(=O)NC2CCCCC2)cc1 1.12
C[C@H](CCC(=O)O)[C@H]1CC[C@H]2[C@@H]3C(=O)C[C@@H]4CC(=O)CC[C@]4(C)[C@H]3CC(=O)[C@]12C 0.845 and 0.978
CC1(C)C2CCC1(CS(=O)(=O)O)C(=O)C2=Cc1ccc(C=C2C(=O)C3(CS(=O)(=O)O)CCC2C3(C)C)cc1 0.867
O=C(O)c1ccccc1Nc1ccccc1 1.17
CC(C)(C)NC[C@H](O)COc1nsnc1N1CCOCC1 0.915
CC1(C)S[C@@H]2[C@H](NC(=O)[C@H](N)c3ccc(O)cc3)C(=O)N2[C@H]1C(=O)O 0.921
CCOC(=O)Nc1ccc(NCc2ccc(F)cc2)nc1N 1.2
Cc1ccc(C(C)C)cc2c(C)ccc1-2 1.43
CNNCc1ccc(C(=O)NC(C)C)cc1 0.967
CC(C)(O)c1ccccc1CC[C@@H](SCC1(CC(=O)O)CC1)c1cccc(/C=C/c2ccc3ccc(Cl)cc3n2)c1 1.04
CC1(C)CC2C1CC[C@]1(C)CCC3C(C(=O)O)CC(=O)O[C@@]32C1 (some centres undefined) [3-HYDROXY-4-(SUCCIN-2-YL)-CARYOLANE delta-LACTONE] 0.937
COc1cc2c(cc1OC)-c1cc3ccc(OC)c(OC)c3c[n+]1CC2 1.03 and 1.05
O=C(Nc1ccc(C(=O)O)c(O)c1)c1ccccc1 0.956
CC(C)[C@@H]1CC[C@@H](C)C[C@H]1OC(=O)c1ccccc1 1.5
CO/N=C(\C(=O)N[C@@H]1C(=O)N2C(C(=O)O)=C(CSC(=O)c3ccco3)CS[C@H]12)c1csc(N)n1 1.03
CC(C)Cn1cnc2c(N)nc3ccccc3c21 1.13
O=C1c2c(O)cccc2C([C@@H]2O[C@H](CO)[C@@H](O)[C@H](O)[C@H]2O)c2cc(CO)cc(O)c21 (some centres undefined) 0.783
O=C(O)[C@H]1/C(=C/CO)O[C@@H]2CC(=O)N21 1.15
CC(Cc1cccc(C(F)(F)F)c1)NCCOC(=O)c1ccccc1 (centres undefined) 0.838
CCCCCCCCCCCCCCCC(=O)OC/C=C(C)/C=C/C=C(C)/C=C/C1=C(C)CCCC1(C)C 1.23
CC(=O)NS(=O)(=O)c1ccc(NC(=O)c2ccccc2C(=O)O)cc1 1.21

ARE/NRF2 luciferase reporter activity, active:
COc1ccc(-c2coc3cc(O)ccc3c2=O)c(O)c1O 4.23
COC(=O)/C=C/C(=O)OC 7.19
CC(C)=CCc1c2c(c3occ(-c4ccc(O)c(O)c4)c(=O)c3c1O)C=CC(C)(C)O2 3.2
CCOc1ccc(C(=O)c2ccc(O)c(O)c2O)cc1 2.37
O=c1c(-c2ccc(O)cc2)coc2cc(O)cc(O)c12 8.01
C=C1CC[C@@H]2[C@](C)(CO)[C@H](O)CC[C@@]2(C)[C@@H]1C/C=C1/C(=O)OC[C@H]1O 35.1
CC1(C)C=Cc2c(c3c(c4c(=O)c(-c5ccc(O)c(O)c5)coc24)OC(C)(C)CC3)O1 4.47
COC(=O)/C=C/c1ccc(O)c(O)c1 5.12
